This note sets out measurements from PubChem BioAssay AID1346428 (National Center for Advancing Translational Sciences (NCATS), 2018).

Several values for one entry are separate records, joined by “and”; a condition that tells them apart may be missing. Identical values can stand only once. The campaign covered roughly 48,000 compounds. About 1,200 (2.5%) were called active. Roughly 2% stayed inconclusive and do not appear here.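 The calls were made as follows: active = activation of at least 60% and not above a set upper limit (about 1 call in 100 departs from these limits); inconclusive = activation of 40% to 60%, or above that upper limit; inactive = activation under 40%.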 The list shows a part of the results.

The assay addresses Probable G-protein coupled receptor 32 (Homo sapiens) (UniProt O75388). The experiment in a line: qHTS for Agonists of Human Resolvin D1 Receptor DRV1. Particulars: CHO-K1 GPR32 beta-arrestin PathHunter luminescence, 90 min; at 76.9 µM; active compounds read high; zero percent set by DMSO-only wells. An outline of the steps: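 PathHunter enzyme-fragment complementation, CHO-K1 GPR32 stable line; 2,500 cells/well, overnight attach; cpd 90 min 37 °C 5% CO2; detection reagent 1 h RT; chemiluminescence. DMSO = EC0.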
UniProt O75388, sequence (O75388 whole entry, looked up, the tested form may be a part): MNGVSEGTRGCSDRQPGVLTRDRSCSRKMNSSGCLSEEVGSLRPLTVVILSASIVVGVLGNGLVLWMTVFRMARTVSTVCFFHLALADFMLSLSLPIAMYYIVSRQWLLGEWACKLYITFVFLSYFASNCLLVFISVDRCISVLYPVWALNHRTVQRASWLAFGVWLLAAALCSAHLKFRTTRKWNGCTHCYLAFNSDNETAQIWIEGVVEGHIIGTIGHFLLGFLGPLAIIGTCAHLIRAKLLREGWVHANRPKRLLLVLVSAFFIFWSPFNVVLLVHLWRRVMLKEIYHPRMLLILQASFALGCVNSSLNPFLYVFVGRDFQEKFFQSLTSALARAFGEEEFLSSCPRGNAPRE
Consider `Cn1c(=O)c2c(ncn2CC(=O)Nc2cccc(Cl)c2Cl)n(C)c1=O`, for which the activation was inactive: 5.48%. The figure for `COc1cccc(Cn2c(CNC(=O)c3cc([N+](=O)[O-])ccc3Cl)nc3cccnc32)c1` is inactive: -7.31%. The figure for `Cc1ccccc1C(=O)NC1(C(F)(F)F)C(=O)Nc2c1c(=O)[nH]c(=O)n2-c1ccc(F)cc1` (stereo not drawn) is inactive: 0.436%; for `CCN(Cc1ccccc1)Cc1c(O)ccc2c(=O)c(-c3ccc(Cl)cc3Cl)coc12` it is inactive: -6.2%.

On to `Cc1noc(/C=C/c2cccs2)c1S(=O)(=O)N1CCC(C(=O)NCc2ccccc2Cl)CC1`, for which the activation was inactive: -21.1%.

As for `CCCCNC(=O)CCCn1c(=O)c2ccccc2n(CC(=O)Nc2ccccc2OCC)c1=O`, the activation was inactive: -9.62%. Consider `CCOc1ccccc1NC(=O)c1ccc(F)c(S(=O)(=O)NCc2ccc3c(c2)OCO3)c1`, for which the activation is inactive: -11.9%. Next, `COc1cc(/C=C(\C#N)c2nc3ccccc3[nH]2)ccc1OCc1cccc(C(F)(F)F)c1`: inactive: 16.6%; `CCCc1cnc2c(c1SCC(=O)Nc1ccc(C)c(Cl)c1)c(=O)n(C)c(=O)n2C`: inactive: -11.4%; `CCOc1ccccc1NC(=O)N1CCc2c(sc(C)c2CC)C1c1ccccc1` (stereo not drawn): inactive: 20.4%. The figure for `COc1ccc(CNc2ncnc3onc(-c4ccc(F)cc4)c23)cc1` is inactive: 23.7%; for `CC1CCc2c(sc(NC(=O)C3c4ccccc4Oc4ccccc43)c2C(=O)OC(C)C)C1` (stereo not drawn) it is inactive: -24.8%. Next, `CCOC(=O)c1scc(-c2ccccc2)c1S(=O)(=O)Nc1cc(Cl)c(OC)cc1OC`: inactive: -68%; `COc1ccc(Nc2nc(N)c3cc(OC)c(OC)cc3n2)cc1`: inactive: -3.44%; `Brc1c(NC2=NCCN2)ccc2nccnc12`: inactive: 49.4% and inactive: 41.5%.

As to `O=C(Cc1ccccc1)NCCc1csc2nc(-c3ccc(Cl)cc3)nn12`, the activation is inactive: -3.72%.

As for `COc1cccc(CNC(=O)c2nn(-c3ccc(C)cc3)c(=O)c3c2c2ccccc2n3C)c1`, the activation is inactive: -8.55%.

For `COC(=O)c1ccc(CSc2nc3c([nH]c4ccccc43)c(=O)n2-c2ccc(OC)cc2)o1`, the activation is inactive: 5.81%. In the case of `COc1ccc(CNC(=O)c2c3c(nc4ccccc24)C(=O)N(C2CCCCC2)C3)cc1`, the activation is inactive: -28.9%.

With `CCOC(=O)c1oc2ccc(S(=O)(=O)n3nc(-c4ccc(Br)cc4)cc3N)cc2c1C`, the activation is inactive: -1.62%. The figure for `Cc1ccc(-n2nc(C)c3c(C(=O)NCc4ccccc4)cc(C4CC4)nc32)cc1` is inactive: -14%.

As for `COc1ccccc1CNS(=O)(=O)c1ccc2c(c1)NC(=O)CC(=O)N2`, the activation is inactive: 3.3%. The figure for `COc1ccccc1Nc1nn2c(=O)c3ccc(C(=O)N4CCCC(C)C4)cc3nc2s1` (stereo not drawn) is inactive: 11.6%; for `COc1ccc(C2CC(=O)N(Cc3cccc(F)c3)c3ccccc3S2)cc1` (stereo not drawn) it is inactive: 3.49%. Next, `Cc1ccc(S(=O)(=O)NCc2nc(-c3cccc(C)c3)no2)cc1`: inactive: 2.9%.

In the case of `CCn1cc(C(=O)NCc2ccccc2Cl)c(=O)c2cc(S(=O)(=O)N3CCc4ccccc4C3)ccc21`, the activation is inactive: -7.22%.

`CCOC(=O)c1sc(NC(=O)C2c3ccccc3Oc3ccccc32)c(C(=O)OCC)c1C`: the activation was inactive: -0.307%.

For `CCOC(=O)c1cccnc1`, the activation is inactive: 11.4%. The figure for `COCCCNC(=O)c1ccc2c(c1)N(Cc1ccccc1)C(=O)c1ccccc1S2` is inactive: -23.1%; for `O=C(CSc1nc(=O)n(CCN2CCOCC2)c2c1CCC2)Nc1ccccc1` it is inactive: -9.99%; for `COc1ccccc1CNC(=O)CCCn1c(=O)c2ccccc2n(CC(=O)Nc2c(C)cc(C)cc2C)c1=O` it is inactive: 23.4%. Next, `CN(C)CCOC(=O)COc1ccc(Cl)cc1`: inactive: -11.1% and inactive: -2.37%. The figure for `COc1ccc(C(=O)Nc2nnc(S(=O)(=O)N(CC(C)C)c3ccc(C)cc3)s2)cc1OC` is inactive: 4.59%; for `Cc1ccc2c(c1)N(C(=O)CCC(=O)NCc1ccccc1Cl)CC(C)O2` (stereo not drawn) it is inactive: -15.2%. Turning to `O=C(Nc1ccc(S(=O)(=O)Nc2ncccn2)cc1)c1ccccc1Cl`, the activation was inactive: -13.4%. Next, `O=C(Nc1cc(C(F)(F)F)ccc1Cl)c1cc(-c2ccc3c(c2)OCCO3)on1`: inactive: 8.37%; `COC(=O)c1cccnc1-n1c(=O)c2cccnc2n(CC(=O)Nc2ccc(C)cc2C)c1=O`: inactive: -8.35%; `CC(=O)c1ccc(NC(=O)COc2ccccc2-c2nc(-c3cccc(C)c3)no2)cc1`: inactive: -3.44%. The figure for `COc1ccc(NC(=O)CSc2nnc(NC(=O)Nc3ccccc3)s2)cc1OC` is inactive: 5.52%; for `CC(NC(=O)Cn1c(=O)oc2cc(S(=O)(=O)NCc3ccccc3)ccc21)c1ccccc1` (stereo not drawn) it is inactive: 8.78%; for `COc1ccc(-c2cn3cccnc3n2)cc1NC(=O)Nc1ccc(Cl)cc1` it is inactive: -8.11%. Next, `O=C(Nc1ccc(S(=O)(=O)Nc2ncccn2)cc1)c1cc(=O)c2ccccc2o1`: inactive: -3.68%. For `Cc1ccc(C(=O)c2oc3ccccc3c2NC(=O)COc2ccc(C(C)C)cc2)cc1`, the activation was inactive: -4.15%. The figure for `O=C(CC1C(=O)N(c2ccccc2)C(=O)N1Cc1ccc(F)cc1)Nc1cccc(F)c1` (stereo not drawn) is inactive: -15.5%; for `CCN(CC)C(=O)Cn1c(=O)cc(C)c2c(C)nn(-c3ccc(C)cc3)c21` it is inactive: 38.1%. Next, `COc1ccc(-c2cc(-c3ccccc3)nc3c2COc2ccc(F)cc2-3)cc1`: inactive: 7.72%; `CC(C)c1nn2c(=O)cc(COC(=O)c3ccc(NC(=O)C4CCCCC4)cc3)nc2s1`: inactive: -11%. Take `Cc1ccc(CSc2ncc(Cl)c(C(=O)NCc3ccccc3)n2)cc1`: the activation is inactive: -28.2%.

Consider `Cc1ccc(S(=O)(=O)N2CCCc3cc(NS(=O)(=O)c4cc(C)ccc4C)ccc32)cc1`, for which the activation is inactive: -16.6%. The figure for `COc1ccc2[nH]c3c(c2c1)CCN(C(=O)c1cccc(Cl)c1)C3c1ccc(F)cc1` (stereo not drawn) is inactive: -1.79%; for `CCOc1ccc(-c2c(C)nn3c(C)c(C(=O)NCCc4ccc(Cl)cc4)cnc23)cc1OCC` it is inactive: -0.837%; for `COC(=O)c1ccccc1NC(=O)c1cc2cc(C)ccc2n1C` it is inactive: -0.33%.

For `O=C(Cn1c(=O)n(-c2ccc(Cl)cc2)c(=O)c2sc3ccccc3c21)NC1CCCC1`, the activation was inactive: 29.5%. The figure for `Cc1ccc(S(=O)(=O)Cc2ccc(C(=O)N3CCN(c4cccc(Cl)c4)CC3)o2)cc1` is inactive: 46.7%. Next, `Cc1ccccc1OCC(=O)Nc1cccc(C(=O)OCc2cc(=O)n3c(C)csc3n2)c1`: inactive: -28.1%. Next, `CCc1cccc(NC(=O)C2CCC(CNS(=O)(=O)c3ccc(Br)s3)CC2)c1` (stereo not drawn): inactive: 2.3%. On to `Cc1ccc(NC(=O)c2cc(S(=O)(=O)N3CCc4ccccc43)cn2C)c(Cl)c1`, for which the activation is inactive: -3.03%. The figure for `CCC1=Nc2cc(C(=O)NCCN(CC)CC)ccc2Sc2ccccc21` is inactive: 10.5%; for `CCc1nc2cccnc2n1-c1ccc(CC(=O)Nc2cccc(C)c2C)cc1` it is inactive: -12.8%.

`CCc1ccc(-n2nc(CO)c(C(=O)NCCCc3ccccc3)n2)cc1`: the activation is inactive: -7.71%. The figure for `Cc1ccc(C)c(S(=O)(=O)c2nnn3c2nc(NC2CCCCC2)c2sccc23)c1` is inactive: -19.7%; for `N#C/C(=C\c1ccc(O)c(O)c1)C(=O)NCCCNC(=O)/C(C#N)=C/c1ccc(O)c(O)c1` it is inactive: -32.1%; for `O=C(NCCc1ccccc1)C1CCC(CNS(=O)(=O)c2ccc(Cl)cc2)CC1` (stereo not drawn) it is inactive: -11.9%. Next, `Cc1ccc(C)c(N2CCN(C(=O)NCc3noc4ccc(C)cc34)CC2)c1`: inactive: -14.3%. Next, `Cc1ccccc1Cn1c2ccccc2c2cnn(CC(=O)NCc3ccccn3)c(=O)c21`: inactive: 26.1%. Take `CCSc1ccccc1C(=O)Nc1ccc(-c2nc3ccccc3s2)c(O)c1`: the activation was inactive: -2.62%. For `CCOc1ccc(C(=O)NC2CC(=O)N(c3ccc(C)cc3)C2)cc1OCC` (stereo not drawn), the activation is inactive: -1.04%. Take `O=C(OCc1ccccc1)c1ccccc1`: the activation is inactive: 19.2%. Next, `CCOC(=O)c1cccc(NC(=O)C2Cc3ccccc3N2C(=O)c2ccccc2)c1` (stereo not drawn): inactive: 9.91%; `CC1CCN(S(=O)(=O)c2ccc3c(ccn3CCC(=O)NCc3ccccc3F)c2)CC1`: inactive: -16.4%.

For `Cc1ccc(Nc2nc3ccccc3c3nncn23)c(Cl)c1`, the activation is inactive: -1.99%. Take `Cc1ccc(-c2nc(NC(=O)CSc3nc(C)nc4sc5c(c34)CCCC5)ns2)cc1`: the activation was inactive: -5.8%. Next, `Cc1ccccc1CNC(=O)CN1C(=O)C2CCCCN2c2ccc(C(=O)N3CCCC3)cc21` (stereo not drawn): inactive: -13.9%.

On to `CCc1nn(CC(=O)N2CCCCC2)c(=O)c2cc3sc(C)cc3n12`, for which the activation is inactive: -9.94%. The figure for `Cc1ccccc1NC(=O)CCS(=O)(=O)c1cc(Br)cc2c1N(C(=O)C1CC1)CC2` is inactive: -3.14%. Regarding `Cc1ccc(C)c(Cn2c(=O)n(C(C)C)c(=O)c3oc4ccccc4c32)c1`, the activation was inactive: -3.11%. The figure for `Cc1cccc(-n2ncc3c(Nc4ccc(C)c(Cl)c4)ncnc32)c1` is active: 73.7%; for `COc1ccc(NC(=O)c2c(-c3ccccc3)c(-c3ccccc3)nn(C)c2=O)cc1OC` it is inactive: -18.7%; for `Cc1sc2c(c1C)c(=O)n(Cc1ccccc1)c(=O)n2Cc1ccc(F)cc1` it is inactive: 1.87%. The figure for `O=C(Nc1ccc2c(c1)N(C1CCCC1)C(=O)c1ccccc1S2)c1ccccc1F` is inactive: -5.69%. Next, `O=C(Nc1sc2c(c1C(=O)NCc1cccnc1)CCCC2)c1cc(=O)c2ccccc2o1`: inactive: 1.05%; `Cc1ccc2nc(COc3ccccc3NC(=O)C(C)(C)C)cc(=O)n2c1`: inactive: -1.7%.

As for `CCOc1ccc(C2CC(c3c(O)n(C4CCCCC4)c(=O)[nH]c3=O)=Nc3ccccc3S2)cc1` (stereo not drawn), the activation is inactive: -0.318%.
